Reference: article PMC5892938
The list shows a part of the results. At the low end of the ranking, values are background and their order means little.

Target: GST-SBP-SLBP (stem-loop binding protein) (UniProt Q14493)
Assay: targeted RNA Bind-n-Seq;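 further: DESeq read counts versus GST-SBP nonspecific binding control pulldown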
Conditions: RBNS binding buffer: 25 mM Tris pH 7.5, 150 mM KCl, 3 mM MgCl2, 0.1% Tween, 0.5 mg/mL BSA, 1 mM DTT; 27 nM protein, 750 pM RNA pool; temperature not stated; high values mean tight binding

Sequence | binding signal (log2 fold change)
GGUCACGUCUCAAUCAACUCAUCUCCAGGAGUUUGCUCCUGCUUUCUCAACAGCUCGCAGUCAAG | 0.191
GGUCACGUCUCAAUCAACUCAAACGAGGGGGGGAAAACCCCUUUACCCUCUACCUCAACAGCUCGCAGUCAAG | 0.124
GGUCACGUCUCAAUCAACUCAUCCUCCAGGGAAAACCCUGGCUUAUUCAACAGCUCGCAGUCAAG | -0.175
GGUCACGUCUCAAUCAACUCACACGAGGGGGGGAAAACCCCUUUACCCUCAUCCUCAACAGCUCGCAGUCAAG | 0.453
GGUCACGUCUCAAUCAACUCAUCCCCCAGGGAAAUCCCUGGCUAUCUCAACAGCUCGCAGUCAAG | -0.029
GGUCACGUCUCAAUCAACUCAUCUCCCAGGGAAAGCCCUGGCUAUCUCAACAGCUCGCAGUCAAG | -0.0945
GGUCACGUCUCAAUCAACUCAAUCUCAGGAGUUUUCUCCUGCUUAGUCAACAGCUCGCAGUCAAG | 0.101
GGUCACGUCUCAAUCAACUCUACUUCCAGGGAAACCCCUGGUUAACUCAACAGCUCGCAGUCAAG | 0.28
GGUCACGUCUCAAUCAACUCUACUUCCAGGGAAAGCCCUGGUUUUUUCAACAGCUCGCAGUCAAG | -0.408
GGUCACGUCUCAAUCAACUCUAUCUCCAGGGAAAACCCUGGCUAAUUCAACAGCUCGCAGUCAAG | 0.158
GGUCACGUCUCAAUCAACUCUCACGAGGGGGGGAAAACCCCUUUACCCUCUCAAUCAACAGCUCGCAGUCAAG | -0.16
GGUCACGUCUCAAUCAACUCCAACGAGGGGGGGAAAACCCCUUUACCCUCAUAAUCAACAGCUCGCAGUCAAG | 0.0269
GGUCACGUCUCAAUCAACUCUAUCUCAGGAGUUUUCUCCUGUUAAUUCAACAGCUCGCAGUCAAG | -0.0443
GGUCACGUCUCAAUCAACUCAUCCUCAGGAGUUUUCUCCUGCAAACUCAACAGCUCGCAGUCAAG | 0.236
GGUCACGUCUCAAUCAACUCUUCCUCAGGAGUUUUCUCCUGUUUUCUCAACAGCUCGCAGUCAAG | -0.037
GGUCACGUCUCAAUCAACUCUAUCCCCAGGGAAACCCCUGGUUAUCUCAACAGCUCGCAGUCAAG | -0.0975
GGUCACGUCUCAAUCAACUCAAUUUCAGGAGUUUUCUCCUGUUUACUCAACAGCUCGCAGUCAAG | 0.11
GGUCACGUCUCAAUCAACUCCUUAGAGGGGGGGAAAACCCCUUUGCCCUCGAUAUCAACAGCUCGCAGUCAAG | 0.202
GGUCACGUCUCAAUCAACUCUACUUCCAGGGAAAACCCUGGUUUUCUCAACAGCUCGCAGUCAAG | 0.0483
GGUCACGUCUCAAUCAACUCACUAGAGGGGGGGAAAACCCCUUUACCCUCACAUUCAACAGCUCGCAGUCAAG | -0.428
GGUCACGUCUCAAUCAACUCAUCUCCCAGGGAAAUCCCUGGUUUUUUCAACAGCUCGCAGUCAAG | 0.155
GGUCACGUCUCAAUCAACUCAACUCCAGGAGUUUCCUCCUGUUAACUCAACAGCUCGCAGUCAAG | 0.0588
GGUCACGUCUCAAUCAACUCUUUCUCAGGAGUUUACUCCUGUAUAUUCAACAGCUCGCAGUCAAG | 0.355
GGUCACGUCUCAAUCAACUCAUUCCCCAGGGAAAUCCCUGGUAUAUUCAACAGCUCGCAGUCAAG | 0.00583
GGUCACGUCUCAAUCAACUCUUUUCCAGGAGUUUCCUCCUGUAAUCUCAACAGCUCGCAGUCAAG | 0.0714

Sequence | binding signal (log2 fold change)
GGUCACGUCUCAAUCAACUCAAUCUCCAGGGAAAACCCUGGCUUAUUCAACAGCUCGCAGUCAAG | 0.193
GGUCACGUCUCAAUCAACUCUUUUUCCAGGGAAACCCCUGGUUUACUCAACAGCUCGCAGUCAAG | -0.148
GGUCACGUCUCAAUCAACUCUUAGGAGGGGGGGAAAACCCCUUUACCCUCAACUUCAACAGCUCGCAGUCAAG | -0.145
GGUCACGUCUCAAUCAACUCAUCCUCAGGAGUUUUCUCCUGCAAUUUCAACAGCUCGCAGUCAAG | 0.0218
GGUCACGUCUCAAUCAACUCAUCUUCAGGAGUUUUCUCCUGUAAACUCAACAGCUCGCAGUCAAG | -0.102
GGUCACGUCUCAAUCAACUCCUCAGAGGGGGGGAAAACCCCUUUACCCUCCCAUUCAACAGCUCGCAGUCAAG | 0.356
GGUCACGUCUCAAUCAACUCUUACGAGGGGGGGAAAACCCCUUUACCCUCCAAUUCAACAGCUCGCAGUCAAG | -0.0842
GGUCACGUCUCAAUCAACUCUACAGAGGGGGGGAAAACCCCUUUACCCUCCAAUUCAACAGCUCGCAGUCAAG | -0.103
GGUCACGUCUCAAUCAACUCUUCCUCAGGAGUUUUCUCCUGUUUUUUCAACAGCUCGCAGUCAAG | 0.00209
GGUCACGUCUCAAUCAACUCCUUAGAGGGGGGGAAAACCCCUUUGCCCUCACAUUCAACAGCUCGCAGUCAAG | 0.115
GGUCACGUCUCAAUCAACUCUAGUCCCAGGGAAAUCCCUGGUAAAUUCAACAGCUCGCAGUCAAG | 0.0264
GGUCACGUCUCAAUCAACUCUUUUUCCAGGGAAAUCCCUGGCAUUUUCAACAGCUCGCAGUCAAG | 0.102
GGUCACGUCUCAAUCAACUCUUUCUCCAGGGAAACCCCUGGCUUACUCAACAGCUCGCAGUCAAG | 0.295
GGUCACGUCUCAAUCAACUCUUAAGAGGGGGGGAAAACCCCUUUACCCUCCAUUUCAACAGCUCGCAGUCAAG | -0.201
GGUCACGUCUCAAUCAACUCUUCGUCCAGGGAAACCCCUGGUUUUUUCAACAGCUCGCAGUCAAG | -0.233
GGUCACGUCUCAAUCAACUCUACUCCCAGGGAAAGCCCUGGCAAAUUCAACAGCUCGCAGUCAAG | -0.272
GGUCACGUCUCAAUCAACUCAGUUUCAGGAGUUUCCUCCUGCUAAUUCAACAGCUCGCAGUCAAG | 0.0707
GGUCACGUCUCAAUCAACUCAGUCCCAGGAGUUUCCUCCUGCUUUCUCAACAGCUCGCAGUCAAG | -0.0666
GGUCACGUCUCAAUCAACUCAAUCUCCAGGGAAAGCCCUGGCAAUCUCAACAGCUCGCAGUCAAG | -0.207
GGUCACGUCUCAAUCAACUCAUUUCCAGGAGUUUACUCCUGCUUAUUCAACAGCUCGCAGUCAAG | 0.185
GGUCACGUCUCAAUCAACUCUAAAGAGGGGGGGAAAACCCCUUUGCCCUCCAAUUCAACAGCUCGCAGUCAAG | -0.281
GGUCACGUCUCAAUCAACUCUACUCCAGGAGUUUCCUCCUGCUUUCUCAACAGCUCGCAGUCAAG | -0.135
GGUCACGUCUCAAUCAACUCUUCGUCAGGAGUUUCCUCCUGCAUUUUCAACAGCUCGCAGUCAAG | -0.0657
GGUCACGUCUCAAUCAACUCUUUCUCCAGGGAAAUCCCUGGUAAACUCAACAGCUCGCAGUCAAG | -0.0145
GGUCACGUCUCAAUCAACUCUUCCCCAGGAGUUUUCUCCUGCUAUUUCAACAGCUCGCAGUCAAG | -0.196

Sequence | binding signal (log2 fold change)
GGUCACGUCUCAAUCAACUCAUCGUCCAGGGAAAUCCCUGGUUUUCUCAACAGCUCGCAGUCAAG | -0.319
GGUCACGUCUCAAUCAACUCUACGGCAGGAGUUUACUCCUGGAAAUUCAACAGCUCGCAGUCAAG | -0.036
GGUCACGUCUCAAUCAACUCCUCAGAGGGGGGGAAAACCCCUUUACCCUCCCAAUCAACAGCUCGCAGUCAAG | -0.00956
GGUCACGUCUCAAUCAACUCAUUCCCCAGGGAAAUCCCUGGUAUUCUCAACAGCUCGCAGUCAAG | 0.149
GGUCACGUCUCAAUCAACUCUUCCUCCAGGGAAACCCCUGGCUAUGUCAACAGCUCGCAGUCAAG | 0.0825
GGUCACGUCUCAAUCAACUCCUUCGAGGGGGGGAAAACCCCUUUACCCUCAUUCUCAACAGCUCGCAGUCAAG | 0.0866
GGUCACGUCUCAAUCAACUCUUCUUCCAGGGAAAACCCUGGUAAUCUCAACAGCUCGCAGUCAAG | 0.000133
GGUCACGUCUCAAUCAACUCAUGUCCAGGAGUUUUCUCCUGCAAUUUCAACAGCUCGCAGUCAAG | -0.0357
GGUCACGUCUCAAUCAACUCUUUCUCAGGAGUUUACUCCUGCUUUUUCAACAGCUCGCAGUCAAG | -0.0823
GGUCACGUCUCAAUCAACUCAUUCUCCAGGGAAAACCCUGGUAUACUCAACAGCUCGCAGUCAAG | 0.146
GGUCACGUCUCAAUCAACUCUACUCCAGGAGUUUCCUCCUGUAUUCUCAACAGCUCGCAGUCAAG | 0.0328
GGUCACGUCUCAAUCAACUCUCUAGAGGGGGGGAAAACCCCUUUACCCUCCAAAUCAACAGCUCGCAGUCAAG | -0.192
GGUCACGUCUCAAUCAACUCAUUCUCAGGAGUUUUCUCCUGUUAACUCAACAGCUCGCAGUCAAG | 0.139
GGUCACGUCUCAAUCAACUCAUCUUCCAGGGAAAGCCCUGGUUAAUUCAACAGCUCGCAGUCAAG | -0.252
GGUCACGUCUCAAUCAACUCAUUUUCAGGAGUUUUCUCCUGUUUUCUCAACAGCUCGCAGUCAAG | 0.0257
GGUCACGUCUCAAUCAACUCUACUUCAGGAGUUUACUCCUGCUUUCUCAACAGCUCGCAGUCAAG | 0.207
GGUCACGUCUCAAUCAACUCUUCCCCCAGGGAAACCCCUGGCUAUCUCAACAGCUCGCAGUCAAG | 0.207
GGUCACGUCUCAAUCAACUCAUCCUCCAGGGAAACCCCUGGCAUUUUCAACAGCUCGCAGUCAAG | 0.129
GGUCACGUCUCAAUCAACUCAGUCUCAGGAGUUUUCUCCUGCAAAUUCAACAGCUCGCAGUCAAG | 0.0458
GGUCACGUCUCAAUCAACUCUACAGAGGGGGGGAAAACCCCUUUACCCUCCAAAUCAACAGCUCGCAGUCAAG | 0.212
GGUCACGUCUCAAUCAACUCAUCUCCCAGGGAAAACCCUGGUAAUUUCAACAGCUCGCAGUCAAG | 0.00763
GGUCACGUCUCAAUCAACUCUAUCUCAGGAGUUUGCUCCUGCAUAUUCAACAGCUCGCAGUCAAG | -0.0199
GGUCACGUCUCAAUCAACUCAUUUCCAGGAGUUUUCUCCUGCUUAUUCAACAGCUCGCAGUCAAG | -0.161
GGUCACGUCUCAAUCAACUCAUCGUCCAGGGAAAUCCCUGGUUAUUUCAACAGCUCGCAGUCAAG | 0.205
